Values joined by “and” are separate entries in the source; they are usually repeats but may differ in a detail not shown here. Identical values can stand only once. In all, about 150,000 compounds went through this assay and about 540 (0.36%) showed an effect of 50% or more. The list shows a part of the results.
System: Plasmodium falciparum
Experiment: Primary screen in NF54 nanoGlo assay, in single point, at 2uM, 72h; a lower Z score goes with more inhibition
Type: functional, Erythrocyte
Conditions: timepoint 72 hour

SMILES | % Inhibition [%] | Z score | % Inhibition (2 µM)
c1ccc(-c2ccc(OCCCCn3cncn3)cc2)cc1 | 0 | 0.03 | –
Cc1nc(-c2csc(S(=O)(=O)Nc3cccc(C(F)(F)F)c3C)c2)sc1C | -6 | 0.85 | –
Cc1c(NC(=O)N2CCCO[C@@H](CN3CCOCC3)C2)cnn1C | -21 | 2.67 | –
Cc1ccc2ncc(-c3nc(N4CCOCC4)n(C)n3)cc2c1 | -20 | 3.21 | –
COC[C@@H](O)CNCc1ccc(C)cc1Br | -7 | 0.93 | –
Cc1c(Cl)cc(NC(=O)NCCCS(C)(=O)=O)cc1Cl | -4 | 0.57 | –
Cc1ccc(N2C[C@@H](c3nc(-c4cccc(-c5csc(C6CC6)n5)c4)no3)CC2=O)cc1 | 6 | -0.72 | –
c1ccc2c(N3CCC[C@H](Cn4cncn4)C3)ncnc2c1 | -22 | 3.07 | –
CCC1(CC)CN(C(=O)c2cc(C#N)oc2C)CCS1(=O)=O | -3 | 0.43 | –
CCOc1ccc(C(=O)N[C@H]2CC[C@H](Oc3ncccn3)CC2)cn1 | 0 | 0.03 | –
CCN(Cc1ccccc1)c1ccc(NS(=O)(=O)c2ccccc2C)cc1C(=O)O | -13 | 1.23 | –
Cc1ccc(C(=O)NC2CCN(c3nnc4ccccn34)CC2)cc1N1CCCC1=O | 35 | -3.99 | –
CC(C)COC(=O)NC(C)(C)COC(=O)Nc1ccc(Cl)cc1 | 4 | -0.52 | –
C[C@@H]1OCCO[C@@H]1C(=O)N(Cc1cccnc1)c1ccc(Cl)cc1 | -3 | 0.53 | –
COc1ccccc1OCC(=O)N1CC[C@H](S(=O)(=O)C(C)(C)C)C1 | -2 | 0.42 | –
Cc1ccc([C@@]2(C)NC(=O)N(CCC3OCCO3)C2=O)c(C)c1 | -13 | 2.06 | –
CC1CN(C(=O)NC(C)C(C)c2ccccc2)CCS(=O)(=O)C1 (configuration not stated) | -9 | 1.85 | –
C[C@@H]1C[C@H](O)CN(C(=O)Nc2ccccc2C(=O)N2CCCCC2)C1 | 5 | -0.82 | –
Cc1ccc2c(c1)[C@H](O)CC(C)N2C(=O)c1ccc(Br)cc1 (some centres not stated) | 4 | -0.47 | –
CCc1[nH]nc(NC(=O)C2CC23CCOC3)c1-c1ccc2c(c1)OCO2 (configuration not stated) | -3 | 0.52 | –
C[C@@H]1Oc2ccc(NC(=O)c3cncc(Br)c3)cc2NC1=O | -12 | 2.57 | –

SMILES | % Inhibition [%] | Z score | % Inhibition (2 µM)
NC(=O)C[C@H](c1cccc(Cl)c1)c1cn(Cc2ccc(F)cc2)c2ccccc12 | -1 | 0.22 | –
O=C(Cn1nnn(-c2ccc(NS(=O)(=O)c3cccnc3)cc2)c1=O)N1CCOCC1 | -11 | 2.05 | –
CC(C)c1nnsc1CN1CCC[C@@](O)(CO)C1 | -6 | 1.16 | –
COc1ccc(CC(=O)N2CCN(c3cc(=O)n(C)c(=O)n3C)CC2)c(Cl)c1 | -12 | 1.89 | –
O=C(Nc1ccccc1F)N1CCOc2ccc(N3CCOCC3)cc2C1 | -6 | 1.11 | –
CC(C)n1ncc2c1[C@@H](NCc1c(Cl)cccc1N1CCOCC1)CCC2 | -12 | 0.98 | –
CCn1c(C)ccc(-c2noc(CCC(=O)Nc3ccccn3)n2)c1=O | 26 | -3.5 | –
C[C@H]1COCCN1C(=O)NC(c1cccnc1)C1CC1 (some centres not stated) | -9 | 1.22 | –
COc1cc([C@H]2CC(=O)Nc3c2cnn3C)cc2c1OCCO2 | 33 | -3.68 | –
Cc1ccsc1CNC(=O)N[C@H]1CC(=O)N(C(C)(C)C)C1 | -2 | 0.22 | –
O=S(=O)(c1cc(Br)ccc1Br)N(CCO)CCO | -33 | 3.9 | –
C#CCNC(=O)CCNC(=O)N[C@@H](C)C1CCCCC1 | -2 | 0.21 | –
CC(C)c1ccc(CN2CCC3(CC2)NC(=O)c2c(Cl)cccc2N3)cc1 | 8 | -1.19 | –
CC(=O)N[C@H](C(=O)Nc1cc(C(F)(F)F)c[nH]c1=O)C(C)C | -3 | 0.59 | –
CN1CCCC1C1CCCN1C(=O)c1cn(C)c2ccccc12 (configuration not stated) | -6 | 0.7 | –
CC1CN(c2ccc(F)cn2)CC(c2ccsc2)O1 (configuration not stated) | -14 | 1.36 | –
CCN1CCCCC1C(=O)N[C@H]1C[C@@H]1CC(C)C (some centres not stated) | -4 | 0.59 | –
CN(CN1C(=O)C(=O)c2ccccc21)CN1C(=O)C(=O)c2ccccc21 | 4 | -0.44 | –
O=C1CCc2cc([C@@H](O)CN3C(=O)c4ccccc4C3=O)ccc2N1 | -4 | 0.51 | –
Cc1cc(CNS(=O)(=O)c2cccc(C(=O)N[C@H]3CCOC3)c2)n(C)n1 | 10 | -1.41 | –
COc1cc(OC)nc(Oc2cccc(Cl)c2C(=O)NS(=O)(=O)C2CCCC2)n1 | -45 | 5.26 | –

SMILES | % Inhibition [%] | Z score | % Inhibition (2 µM)
Cc1ccc(CN2CCN(Cc3ccncc3)[C@H]3CS(=O)(=O)C[C@H]32)o1 | -10 | 1.92 | –
CC1CCN(S(=O)(=O)N(C)CCN2CCCC2)CC1 | -2 | 0.38 | –
O[C@@H](CNCc1cccnc1)COc1ccc(F)cc1 | -9 | 0.96 | –
NC(=O)CN1CCC(Nc2nc3ccccc3n2CCO)CC1 | -7 | 1.08 | –
C=CCOc1ccc(Cl)c(C(=O)O)n1 | -2 | 0.22 | –
CCC(=O)N1CCc2cc(Br)c(S(=O)(=O)N3CCC[C@H](C(=O)NC4CCCCC4)C3)cc21 | 11 | -1.2 | –
COC[C@H]1CCN(C(=O)c2cc(C)nc3c(C)c(C)ccc23)C1 | 4 | -0.74 | –
Cn1nccc1CCC(=O)N1CCC(Oc2cccc(Cl)c2)CC1 | -9 | 1.12 | –
Cc1nnc(CN[C@@H](C)c2ccccc2Oc2ccccc2)o1 | -31 | 3.69 | –
COc1ccccc1CNC(=O)c1ccnc(OCC2CC2)c1 | -14 | 1.92 | –
COc1ccc(CN(C(=O)CC(C)(C)C)C(C)C)cc1OS(=O)(=O)C(C)C | 6 | -0.91 | –
CC(C)OCCCNC(=O)c1nnc(C(=O)Nc2ccccc2)s1 | -20 | 1.87 | –
CN1CCN(C(=O)NCc2ccc3c(c2)OCO3)CC1 | -3 | 0.41 | –
COc1ccc(C(=O)N2CCC[C@H](Oc3cncc(OC)n3)C2)c(OC)c1 | -5 | 0.82 | –
Cc1ccc(C(=O)Nc2ccc3c(c2)OCCCO3)cn1 | -7 | 0.77 | –
COC(=O)c1[nH]c(C)c(C(=O)N(C)OC)c1C | -9 | 1.32 | –
O=C(CNC(=O)c1cccs1)Nc1cccc(-n2cnnc2)c1 | -13 | 1.8 | –
O=C(CCCN1CCOC[C@@H](CO)C1)c1ccc(F)cc1 | -8 | 1.58 | –
O=C(NCCN1CCCCC1)c1cn2ccnc(-c3ccc(F)cc3)c2n1 | 2 | -0.23 | –
COCCNC(N)=NCc1cccc(Cl)c1 | -7 | 1.02 | –
COc1cc(CC#N)c(Br)cc1OCC(F)(F)F | 3 | -0.57 | –

SMILES | % Inhibition [%] | Z score | % Inhibition (2 µM)
COCC1CN(C(CC(C)C)C(=O)O)CC(C)O1 (configuration not stated) | -8 | 1.19 | –
CN(C(=O)c1coc(COc2cccc(C(F)(F)F)c2)n1)C1CCOCC1 | 10 | -1.87 | –
O=C(Nc1ccccc1C#Cc1ccccc1NC(=O)C(c1ccccc1)c1ccccc1)C(c1ccccc1)c1ccccc1 | -8 | 0.89 | –
C[C@H]1CS(=O)(=O)C[C@H]1NC(=O)c1nnc(C(C)(C)C)s1 | -12 | 1.45 | –
N#CC1(CN2C(=O)c3ccccc3C2=O)CCC1 | -6 | 0.87 | –
CC[C@@H](C(=O)NC1CCCCC1)n1ncc(N(C)C)cc1=O | 11 | -1.74 | –
COc1ccc(-c2c(C(F)(F)F)n[nH]c2-c2ccc(OCc3ccccc3F)cc2O)cc1 | 79 | -11.69 | –
Cc1nc(COC(=O)C[C@H](C)N2CCCCC2=O)n[nH]1 | -4 | 0.5 | –
CN(C(=O)CCN1CCCS1(=O)=O)C1CCC(F)(F)CC1 | -6 | 1.12 | –
O=C(COc1ccc(F)cc1)N1CC[C@H](c2ccc3c(c2)OCO3)C1 | -2 | 0.33 | –
O=C(Cc1ccsc1)NCC1(N2CCOCC2)CCCCC1 | -10 | 1.42 | –
COCCN1C(=O)Cc2ccccc2[C@@H]1C(=O)N1CCN(c2cccc(Cl)c2)CC1 | 8 | -1.31 | –
CC(C)(C)OC(=O)NCc1cc(C(=O)N2CCCC3(CC3)C2)co1 | 6 | -0.83 | –
O=C(NCCN1CCOCC1)C1Cc2cc(C(F)(F)F)ccc2N2CCN(CCc3ccccc3)CC12 (configuration not stated) | -3 | 0.38 | –
O=C(NCC(=O)N1C2CCC1CC(CC(F)F)C2)N1CCCC1 (configuration not stated) | -2 | 0.39 | –
CCOc1ccc(Cl)cc1CNCCOCCO | – | – | -14% and -2%
COc1ccc(OCCCN)c(C(=O)N2CC(Oc3ccccc3F)C2)c1 | -15 | 1.35 | –
O=C(c1cnccn1)N1CC[C@]23C(=O)N(Cc4cn(nn4)CCCOc4cccc(c4)[C@@H]12)c1ccccc13 | -8 | 0.92 | –
O=C(Nc1cc(Oc2ccc3ccccc3c2Cl)ccc1Cl)c1cc(Cl)cc(Br)c1O | -11 | 1.32 | –
c1cc(CN2CCC[C@@]3(CCCO3)CC2)c2cccnc2c1 | 1 | -0.19 | –
Cc1cc(NC(=O)COC(=O)c2cc(Cl)cn2C)no1 | -7 | 0.87 | –
